Values quoted from earlier work as cited in publication PMC11006913.
Some of the results follow.

Target: PROP1 R112Q (Homo sapiens) (UniProt O75360)
Details: PBM; conditions not shown; double strand, one strand shown; scale: upbm affinity estimate (log intensity, higher = more binding, comparable within an allelic series)

UniProt O75360, sequence (O75360 56-141 R112Q): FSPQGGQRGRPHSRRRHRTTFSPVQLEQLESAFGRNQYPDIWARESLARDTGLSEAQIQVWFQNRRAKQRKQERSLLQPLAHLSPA

| Sequence | binding signal |
| --- | --- |
| GATCAATA [8-mer GATCAATA] | 11.9 |
| ACCAATTG [8-mer ACCAATTG] | 12.4 |
| CCAATCAA [8-mer CCAATCAA] | 12.2 |
| ATTACCAG [8-mer ATTACCAG] | 12 |
| AATCATCG [8-mer AATCATCG] | 11.9 |
| AATCAATT [8-mer AATCAATT] | 12.6 |
| CCAATCCA [8-mer CCAATCCA] | 11.7 |
| GTCATAAC [8-mer GTCATAAC] | 11.7 |
| TATATTAA [8-mer TATATTAA] | 12.2 |
| AAGGTAAT [8-mer AAGGTAAT] | 12 |
| TATGTAAA [8-mer TATGTAAA] | 11.8 |
| CCTACCCC [8-mer CCTACCCC] | 10.9 |
| GCCATTAA [8-mer GCCATTAA] | 11.9 |
| AGAATTGG [8-mer AGAATTGG] | 12 |
| AACAATTG [8-mer AACAATTG] | 12.2 |
| ACTAGTTA [8-mer ACTAGTTA] | 11.8 |
| TATTGGCA [8-mer TATTGGCA] | 12 |
| CAATTGTC [8-mer CAATTGTC] | 12.2 |
| ACGATTGG [8-mer ACGATTGG] | 11.7 |
| ATTGATTG [8-mer ATTGATTG] | 12.6 |
| AGTAATCA [8-mer AGTAATCA] | 12.1 |
| TATTGACA [8-mer TATTGACA] | 11.9 |
| ACCAATAG [8-mer ACCAATAG] | 11.9 |
| AGCAATTG [8-mer AGCAATTG] | 12.1 |
| TCTCATAA [8-mer TCTCATAA] | 11.7 |
| CAATTGCA [8-mer CAATTGCA] | 12.2 |
| ACGGGGGG [8-mer ACGGGGGG] | 10.9 |
| CAATAGGA [8-mer CAATAGGA] | 11.8 |
